Measurements from the RNAGym collection of RNA variant scans (doi:10.1073/pnas.2313332121).
Variants at the background level are over-represented here.

B1: TPR 5TU (parent)
chain: GGAUCUUCUCGAUCUAACAAAAAAGACAAAUCUGCCACAAAGCUUGAGAGCAUCUUCGGAUGCAGAGGCGGCAGCCUUCGGUGGCGCGAUAGCGCCAACGUUCUCAACUAUGACACGCAAAACGCGUGCUCCGUUGAAUGGAGUUUAUCAUG

Variants of: B1
Assay: polymerase ribozyme fitness, log enrichment relative to wild type (log ratio); higher = more active; in vitro selection for triplet polymerase activity
Method in brief: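 The heterodimeric triplet polymerase ribozyme's subunits were each mutagenized into PCR-built libraries and transcribed. Every library was selected once, in triplicate, by annealing with a biotinylated primer, the partner subunit and triplets, incubating frozen at −7 °C, gel-excising extended constructs, capturing on streptavidin beads and running RT-PCR. Input and output libraries were Illumina-sequenced, with genotypes kept only at ≥10 input reads and ≥1 read per output. Fitness, from inverse-variance-weighted replicate averages, is the base-2 logarithm of genotype enrichment over wild-type enrichment.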

Variant	polymerase ribozyme fitness (log ratio)
A49C G88U C132A	≤ -4.2
A49C A107G U151C	≤ -4.2
G50A C75U G83U C93U G141A	≤ -4.2
A49C C75G C87A	≤ -4.2
G48C U61A U77A C125U U144A	≤ -4.2
G48U G50C G84U C96U	≤ -4.2
A49U U55A U82C A138G	≤ -4.2
A49G C99G A106G C116G C129A A138U U148G C149G	≤ -4.2
G50A C95A G136A U139C	≤ -4.2
A49G G81A C87G U104G A138C	≤ -4.2
A49G A91U C118A U148A	≤ -4.2
A49C G81C	≤ -4.2
A49C C51A A64C C76G A110G A138U	≤ -4.2
A49G U53A U144G	-0.883
G48U C54U U77G C85A G86A C114U	≤ -4.2
A49C G62U A64G A73G C85G C114U G128U	≤ -4.2
G50A A120G C132G	≤ -4.2
A49C C118U G141C	≤ -4.2
A49U G50U A52G C93G C99G	≤ -4.2
G48C U55A C93G	-3.87
G50A C54A A66C G86A C105U A110U G133U U139G G152A	≤ -4.2

Variant	polymerase ribozyme fitness (log ratio)
A49C C85A C105A A147C	≤ -4.2
G48U U61A G100A C103G C116U G128U U130G	≤ -4.2
A49C A122U C132G	≤ -4.2
A49C C57U A119G	≤ -4.2
A49C C57U C79G C87U	≤ -4.2
A49C C72U C85G G94A A97U	≤ -4.2
A49U G133U	-3.93
A49U G65U G67A U130C U135G G136A U144G	≤ -4.2
A49C G50C C57U G68U G143A	≤ -4.2
A49C A89C	≤ -4.2
G50A C57U G70A C79U G84U U102G G133A	≤ -4.2
G50A C57A U127A G143U	-4.04
A49C C149A	≤ -4.2
A49C C54A C72G C79U C87U A89G C93U C96U C103A	≤ -4.2
G50A C75G A120G U134A A138G U148A	≤ -4.2
G50A C54U C85U G112C A115G A122U G133C	≤ -4.2
A49C G74U A122U C131G U145A U146A	≤ -4.2
G50A C93A A97G C99U U109G	≤ -4.2
G48C U55C A66G C85U U101A	≤ -4.2
A49G U53A C87G A120G	≤ -4.2
G50A C54G C87A G140A	≤ -4.2

Variant	polymerase ribozyme fitness (log ratio)
A49G C51A G94A G124U	-3.32
G50A A52G C76U A98G C123G	-2.81
A49C A66U C85G G136A	≤ -4.2
A49C U53G U56C A119C	≤ -4.2
G50A C57A C85A A91C A98C U146C	≤ -4.2
G48U A52G C76A G84U G88A C123A G143C	≤ -4.2
G50A C54U U56A G70A C87G U90A C95G U109G C114G G141U	≤ -4.2
G48U G83C C87U	≤ -4.2
G50A A110G C129G C132A A137G	≤ -4.2
A49G C54A C116G A121U	-2.34
A49U C75U A115U C118U	≤ -4.2
A49C U78G C87A	≤ -4.2
G50A G83C C85A U90C	≤ -4.2
A49G G50U C87G U144G	≤ -4.2
A49G C54U G88C C96G A110U A150G	≤ -4.2
A49C C54U U56A C63A G70C C87U A98U	≤ -4.2
G50A U61G C75A G83U A107G G136U	≤ -4.2
G50A C108A G124U U148G	≤ -4.2
G50A G94U	-3.07
G50A C54U G80A U82G G88A G92A C93G U145A	≤ -4.2
A49U A52C C57A C93A	≤ -4.2

Variant	polymerase ribozyme fitness (log ratio)
G50A C54U U104C G124U G133A G136A	≤ -4.2
A49C A110G	≤ -4.2
A49C A60G G67U C85U C93G A97G	≤ -4.2
A49C C123G G126A	≤ -4.2
G48U C87A C96G A121G G141C A147G	≤ -4.2
A49G U53A	-1.54
A49C C69G	≤ -4.2
G50A C54U U77C G86A A91U	≤ -4.2
G50A C76G	≤ -4.2
G48U U56A U109G C116G C131U A142C	≤ -4.2
A49G G88U A120C	≤ -4.2
A49C C75A	≤ -4.2
G50A C54U C75A A107U A147C	≤ -4.2
A49U U53A C85A G136A G140A	≤ -4.2
A49C C96G	-3.45
G50A A52U C76G	≤ -4.2
A49C G80A U82C C87G G94A A119U U134G	≤ -4.2
G50A U56A U82A A98G U102G	≤ -4.2
G48U U55G C118G C131U A137C U145A	≤ -4.2
A49C C103G A142C	≤ -4.2
A49C U56A A64U C75G C93U C99G	≤ -4.2
